The values below come from publication PMC3887210, “Conserved Distal Loop Residues in the Hsp104 and ClpB Middle Domain Contact Nucleotide-binding Domain 2 and Enable Hsp70-dependent Protein Disaggregation*” (The Journal of Biological Chemistry, 2013).

B1: Hsp104^L431W (natural protein)
chain: not shown
notes: Hsp104 of Saccharomyces cerevisiae with L431W in the middle domain distal loop; source: E. coli BL21-DE3 RIL, purified (Affi-Gel Blue, Resource Q anion exchange, size exclusion)
B2: Hsp104^A430W (natural protein)
chain: not shown
notes: Hsp104 of Saccharomyces cerevisiae with A430W in the middle domain distal loop; source: E. coli BL21-DE3 RIL, purified (Affi-Gel Blue, Resource Q anion exchange, size exclusion)
B3: Hsp104^D438W (natural protein)
chain: not shown
notes: Hsp104 of Saccharomyces cerevisiae with D438W in the middle domain distal loop; source: E. coli BL21-DE3 RIL, purified (Affi-Gel Blue, Resource Q anion exchange, size exclusion)

The series concerns the molecule itself. Put plainly: SEC; Superose 6 10/300; 35 uM monomer; 40 mM HEPES-KOH pH 7.4, 150 mM KCl, 10 mM MgCl2, 1 mM DTT; data not shown. Background: In gel filtration, larger molecules generally elute earlier.
Usually stoichiometry N stands for a count of units in the complex or per binding partner. For B1, the “stoichiometry N” value was 6.

With B2, the “stoichiometry N” value stood at 6.

Regarding B3, the “stoichiometry N” value is 6.
